Laboratory results from patent publication US4537777A, “A52688 Antibiotics and process for their production” (priority 1983, dated 1985).

Columns and labels:
Parameters in all cases: key: --: inactive; trace
[1] = test system: Pseudomonas aeruginosa; assay: standard disc-plate assay; settings: conc 0.1 mg/ml; disc 6.35 mm
Protocol: (§1) In Table IX the standard discplate-assay activity of the A52688 factors is summarized. Activity is measured as the diameter (in mm) of the observed zone of inhibition; the diameter of the disc used in each case was 6.35 mm.

[2] = test system: Mycobacterium avium; assay: standard disc-plate assay; settings: conc 0.1 mg/ml; disc 6.35 mm; ^b overgrowth: factor F
Protocol: as §1

[3] = test system: Proteus vulgaris; assay: standard disc-plate assay; settings: conc 0.1 mg/ml; disc 6.35 mm; ^b overgrowth: factors A, C, E, F, G
Protocol: as §1

[4] = test system: Salmonella gallinarium; assay: standard disc-plate assay; settings: conc 0.1 mg/ml; disc 6.35 mm
Protocol: as §1

[5] = test system: Serratia marcescens; assay: standard disc-plate assay; settings: conc 0.1 mg/ml; disc 6.35 mm; ^b overgrowth: factor C
Protocol: as §1

[6] = test system: Pseudomonas solanacearum; settings: conc 0.1 mg/ml; disc 6.35 mm; ^b overgrowth: factor F
Protocol: as §1

Structure (SMILES) | Zone Diameters [1] | Zone Diameters [2] | Zone Diameters [3] | Zone Diameters [4] | Zone Diameters [5] | Zone Diameters [6]
[C-]#[N+]C(=CC1=C[C@@H](O)[C@H](O)CC1)C(=CC1CCC(O)CC1)[N+]#[C-] (relative stereo) [Factor C] | tr |  |  |  |  | 
O=CNC=Cc1ccc(O)cc1 [Factor B] | -- | -- | -- | -- | -- | --
[C-]#[N+]C(=CC1CCC(OC(=O)C=C(C)C)CC1)C(=CC1(OC(C)=O)C=CC(=O)CC1)[N+]#[C-] (stereo not drawn) [Factor F] | tr |  |  |  | tr | 
